Source: the GPR68 mutational scans of Howard et al. (2025)
The least precise scores are not listed. The source holds two more conditions with little spread; they are left out. In variant names, del marks residues removed and ins residues inserted between the two positions. For part of these data: The data file names ogerin without a concentration.

B1: GPR68, Q15743 (parent)
chain: MGNITADNSSMSCTIDHTIHQTLAPVVYVTVLVVGFPANCLSLYFGYLQIKARNELGVYLCNLTVADLFYICSLPFWLQYVLQHDNWSHGDLSCQVCGILLYENIYISVGFLCCISVDRYLAVAHPFRFHQFRTLKAAVGVSVVIWAKELLTSIYFLMHEEVIEDENQHRVCFEHYPIQAWQRAINYYRFLVGFLFPICLLLASYQGILRAVRRSHGTQKSRKDQIQRLVLSTVVIFLACFLPYHVLLLVRSVWEASCDFAKGVFNAYHFSLLLTSFNCVADPVLYCFVSETTHRDLARLRGACLAFLTCSRTGRAREAYPLGAPEASGKSGAQGEEPELLTKLHPAFQTPNSPGSGGFPTGRLA

Experiments:
[1] = variants of: B1; assay: cAMP reporter score (Enrich2 score, wild type = 0); higher = more signal; HEK293T, FACS bins
[2] = variants of: B1; assay: surface expression score (Enrich2 score, wild type = 0); higher = more signal; HEK293T, FACS bins

G302A
cAMP reporter score ([1]; pH 5.5): 1.16
cAMP reporter score ([1]; pH 6): 0.444
cAMP reporter score ([1]; pH 6, modulator: ogerin): 1.31
cAMP reporter score ([1]; pH 6.5, modulator: ogerin): 1.04
surface expression score [2]: 1.58

D296_L297del
cAMP reporter score ([1]; pH 5.5): -0.845
cAMP reporter score ([1]; pH 6): -0.575
cAMP reporter score ([1]; pH 6, modulator: ogerin): -1.47
cAMP reporter score ([1]; pH 6.5, modulator: ogerin): -1.4
surface expression score [2]: -0.855

C287_F288insG
cAMP reporter score ([1]; pH 5.5): -0.044
cAMP reporter score ([1]; pH 6): -0.023
cAMP reporter score ([1]; pH 6, modulator: ogerin): -0.917
cAMP reporter score ([1]; pH 6.5, modulator: ogerin): -0.746
surface expression score [2]: -1.9

E291_T293del
cAMP reporter score ([1]; pH 5.5): -1.37
cAMP reporter score ([1]; pH 6): -0.666
cAMP reporter score ([1]; pH 6, modulator: ogerin): -1.44
cAMP reporter score ([1]; pH 6.5, modulator: ogerin): -0.849
surface expression score [2]: 0.021

G302_A303insGSG
cAMP reporter score ([1]; pH 5.5): -0.087
cAMP reporter score ([1]; pH 6): -0.659
cAMP reporter score ([1]; pH 6, modulator: ogerin): -0.265
cAMP reporter score ([1]; pH 6.5, modulator: ogerin): -0.982
surface expression score [2]: 0.04

D296_L297insGS
cAMP reporter score ([1]; pH 5.5): -0.867
cAMP reporter score ([1]; pH 6): -0.754
cAMP reporter score ([1]; pH 6, modulator: ogerin): -0.983
cAMP reporter score ([1]; pH 6.5, modulator: ogerin): -0.432
surface expression score [2]: 1.16

E291_T292insG
cAMP reporter score ([1]; pH 5.5): -1.96
cAMP reporter score ([1]; pH 6): -1.18
cAMP reporter score ([1]; pH 6, modulator: ogerin): -0.59
cAMP reporter score ([1]; pH 6.5, modulator: ogerin): -1.92
surface expression score [2]: 0.496

L285Y
cAMP reporter score ([1]; pH 5.5): -0.527
cAMP reporter score ([1]; pH 6): -1.5
cAMP reporter score ([1]; pH 6.5, modulator: ogerin): -0.723
surface expression score [2]: -2.07

R299_R301del
cAMP reporter score ([1]; pH 5.5): -1.91
cAMP reporter score ([1]; pH 6): -0.363
cAMP reporter score ([1]; pH 6, modulator: ogerin): -1.3
cAMP reporter score ([1]; pH 6.5, modulator: ogerin): -1.33
surface expression score [2]: -0.762

T293_H294insGSG
cAMP reporter score ([1]; pH 5.5): -1.09
cAMP reporter score ([1]; pH 6): -0.806
cAMP reporter score ([1]; pH 6, modulator: ogerin): -0.466
cAMP reporter score ([1]; pH 6.5, modulator: ogerin): -0.847
surface expression score [2]: -0.248

Y286del
cAMP reporter score ([1]; pH 5.5): -0.105
cAMP reporter score ([1]; pH 6): -0.58
cAMP reporter score ([1]; pH 6, modulator: ogerin): -1.48
cAMP reporter score ([1]; pH 6.5, modulator: ogerin): -1.02
surface expression score [2]: -1.46

R295_D296insGS
cAMP reporter score ([1]; pH 5.5): -0.978
cAMP reporter score ([1]; pH 6): -0.08
cAMP reporter score ([1]; pH 6, modulator: ogerin): -0.852
cAMP reporter score ([1]; pH 6.5, modulator: ogerin): -1.08
surface expression score [2]: -0.243

E291del
cAMP reporter score ([1]; pH 5.5): -0.516
cAMP reporter score ([1]; pH 6): -0.755
cAMP reporter score ([1]; pH 6, modulator: ogerin): -1.26
cAMP reporter score ([1]; pH 6.5, modulator: ogerin): -0.541
surface expression score [2]: -0.336

C287del
cAMP reporter score ([1]; pH 5.5): -1.6
cAMP reporter score ([1]; pH 6): -0.885
cAMP reporter score ([1]; pH 6, modulator: ogerin): -1.72
cAMP reporter score ([1]; pH 6.5, modulator: ogerin): -1.23
surface expression score [2]: -1.55

V289_E291del
cAMP reporter score ([1]; pH 5.5): -0.838
cAMP reporter score ([1]; pH 6): 0.189
cAMP reporter score ([1]; pH 6, modulator: ogerin): -0.1
cAMP reporter score ([1]; pH 6.5, modulator: ogerin): -0.634

R299W
cAMP reporter score ([1]; pH 5.5): -0.392
cAMP reporter score ([1]; pH 6): -1.62
cAMP reporter score ([1]; pH 6, modulator: ogerin): -0.399
cAMP reporter score ([1]; pH 6.5, modulator: ogerin): -1.29
surface expression score [2]: -0.353

R299Y
cAMP reporter score ([1]; pH 5.5): 1.41
cAMP reporter score ([1]; pH 6): 0.202
cAMP reporter score ([1]; pH 6, modulator: ogerin): 1.19
cAMP reporter score ([1]; pH 6.5, modulator: ogerin): 0.106
surface expression score [2]: -0.539

R299V
cAMP reporter score ([1]; pH 5.5): -0.193
cAMP reporter score ([1]; pH 6): -1.09
cAMP reporter score ([1]; pH 6, modulator: ogerin): -0.81
cAMP reporter score ([1]; pH 6.5, modulator: ogerin): -0.676
surface expression score [2]: -0.96

R299K
cAMP reporter score ([1]; pH 5.5): 0.303
cAMP reporter score ([1]; pH 6): 0.724
cAMP reporter score ([1]; pH 6, modulator: ogerin): 0.48
cAMP reporter score ([1]; pH 6.5, modulator: ogerin): -0.124
surface expression score [2]: 0.265

R299M
cAMP reporter score ([1]; pH 5.5): 0.527
cAMP reporter score ([1]; pH 6): -0.493
cAMP reporter score ([1]; pH 6, modulator: ogerin): -0.101
cAMP reporter score ([1]; pH 6.5, modulator: ogerin): -0.791
surface expression score [2]: -0.972

R299P
cAMP reporter score ([1]; pH 5.5): 0.756
cAMP reporter score ([1]; pH 6): -0.551
cAMP reporter score ([1]; pH 6, modulator: ogerin): 0.217
cAMP reporter score ([1]; pH 6.5, modulator: ogerin): -0.759
surface expression score [2]: 0.005

R299T
cAMP reporter score ([1]; pH 5.5): -0.881
cAMP reporter score ([1]; pH 6): 0.373
cAMP reporter score ([1]; pH 6.5, modulator: ogerin): -0.594
surface expression score [2]: 0.562

R299D
cAMP reporter score ([1]; pH 5.5): 0.353
cAMP reporter score ([1]; pH 6): -0.458
cAMP reporter score ([1]; pH 6, modulator: ogerin): 0.258
cAMP reporter score ([1]; pH 6.5, modulator: ogerin): -0.485
surface expression score [2]: 0.547

R299G
cAMP reporter score ([1]; pH 5.5): 2.43
cAMP reporter score ([1]; pH 6, modulator: ogerin): -1.12
surface expression score [2]: 1.7

R299E
cAMP reporter score ([1]; pH 5.5): 0.766
cAMP reporter score ([1]; pH 6): -0.755
cAMP reporter score ([1]; pH 6, modulator: ogerin): 0.499
cAMP reporter score ([1]; pH 6.5, modulator: ogerin): -0.291
surface expression score [2]: 0.691

R299A
cAMP reporter score ([1]; pH 5.5): 0.39
cAMP reporter score ([1]; pH 6): -0.624
cAMP reporter score ([1]; pH 6, modulator: ogerin): -0.121
cAMP reporter score ([1]; pH 6.5, modulator: ogerin): -0.515
surface expression score [2]: 0.44

R299L
cAMP reporter score ([1]; pH 5.5): -0.487
cAMP reporter score ([1]; pH 6): 0.556
cAMP reporter score ([1]; pH 6, modulator: ogerin): -1.05
cAMP reporter score ([1]; pH 6.5, modulator: ogerin): -0.138
surface expression score [2]: -0.162

R299H
cAMP reporter score ([1]; pH 5.5): 1.73
cAMP reporter score ([1]; pH 6): 0.229
cAMP reporter score ([1]; pH 6, modulator: ogerin): 0.318
cAMP reporter score ([1]; pH 6.5, modulator: ogerin): -0.236
surface expression score [2]: 1.21

R299I
cAMP reporter score ([1]; pH 5.5): 0.282
cAMP reporter score ([1]; pH 6): 0.178
cAMP reporter score ([1]; pH 6, modulator: ogerin): -0.379
cAMP reporter score ([1]; pH 6.5, modulator: ogerin): -0.457
surface expression score [2]: -1.09

R299S
cAMP reporter score ([1]; pH 5.5): 1.11
cAMP reporter score ([1]; pH 6): -0.199
cAMP reporter score ([1]; pH 6, modulator: ogerin): 0.993
cAMP reporter score ([1]; pH 6.5, modulator: ogerin): -0.817
surface expression score [2]: 0.774

R299C
cAMP reporter score ([1]; pH 5.5): 0.368
cAMP reporter score ([1]; pH 6): -0.372
cAMP reporter score ([1]; pH 6, modulator: ogerin): -0.25
cAMP reporter score ([1]; pH 6.5, modulator: ogerin): -0.643
surface expression score [2]: -0.412
